Source: PMC7819943, “Rice protein-binding microarrays: a tool to detect cis-acting elements near promoter regions in rice”
This is one part of the list.

Molecular target: T1, OsWOX13 (Oryza sativa, UniProt Q5QMM3 1-267)
T1 sequence: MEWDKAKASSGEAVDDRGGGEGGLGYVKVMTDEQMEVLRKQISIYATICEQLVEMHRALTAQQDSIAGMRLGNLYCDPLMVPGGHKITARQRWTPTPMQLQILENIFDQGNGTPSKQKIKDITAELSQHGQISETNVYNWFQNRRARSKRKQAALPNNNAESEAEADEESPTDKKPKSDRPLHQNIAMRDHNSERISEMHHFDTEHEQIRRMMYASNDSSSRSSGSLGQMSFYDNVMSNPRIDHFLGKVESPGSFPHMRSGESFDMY
Test: protein-binding microarray (RPBM); PBS, 2% BSA, 51.3 ng/ul salmon testes DNA, 50 uM zinc acetate, 200 nM TF, 25 C, 1 h; high values mean tight binding
Settings: protein: recombinant; tags: N-terminal polyhistidine and DsRed monomer fusion (pET32a); label: CyDye5-dUTP incorporated in the synthesized complementary strand; 3' TTTTT single-stranded linker to array surface; dsDNA, one strand shown
Procedure, shortened: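 An Axon 4000B scanner gave the binding signal as per-feature fluorescence intensity in arbitrary units. This followed washing of a custom Agilent array that had been incubated for 1 h at 25 °C with 200 nM protein in PBS, 2% BSA, salmon testes DNA and 50 µM zinc acetate. The proteins were transcription factors fused at the N-terminus to polyhistidine and DsRed, expressed in E. coli BL21-CodonPlus and purified on Ni–NTA.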

Sequence | binding signal
CCTATGAAGATAATGCTAATTAACCGAATACATAGGAATTCGGAGTCACCTAGTGCAG | 4510 fluorescence intensity (a.u.)
ATTTGATAAATGGGATGCCACGTGTACACCACGTCAACAGCGGAGTCACCTAGTGCAG | 4270 fluorescence intensity (a.u.)
ATCATAGCAGTAATTACCTTTGTAAATTCTAAAAGCAGTCCGGAGTCACCTAGTGCAG | 7500 fluorescence intensity (a.u.)
GCAAAACAGTCCATTAATCAATGACCAACAAAAGAGCCCCCGGAGTCACCTAGTGCAG | 7000 fluorescence intensity (a.u.)
AATAATAATTAACCCCACCGAGTAAATTTCCTAGCTTCGCCGGAGTCACCTAGTGCAG | 11000 fluorescence intensity (a.u.)
TTTATAATTAGTATCAAAACATCCGATATGATAGTTACTTCGGAGTCACCTAGTGCAG | 17100 fluorescence intensity (a.u.)
TAATTAATGAATCCAAATTAATCGCTCTGACCAGTTGCAACGGAGTCACCTAGTGCAG | 9340 fluorescence intensity (a.u.)
TAATTTAATTGACATCGAATTAGACAAGAACTACTTGGTTCGGAGTCACCTAGTGCAG | 37200 fluorescence intensity (a.u.)
ACATTTACTTAATTGTAAATATATATTTTGGTAATATATGCGGAGTCACCTAGTGCAG | 9650 fluorescence intensity (a.u.)
CATTGACTAATATGAGTCCTACATATCATTGAGATACCGACGGAGTCACCTAGTGCAG | 3340 fluorescence intensity (a.u.)
CCATAAATTGTGTGCTGCGATAGGTAGCTGGATCTCGCCGCGGAGTCACCTAGTGCAG | 7560 fluorescence intensity (a.u.)
ATTAAATTTTATGTGCGATTTACAAGCTGAATAAATTTTGCGGAGTCACCTAGTGCAG | 7990 fluorescence intensity (a.u.)
CAACAAATTAGTTTCATTAAATCAATAATCAAAATTCAATCGGAGTCACCTAGTGCAG | 11100 fluorescence intensity (a.u.)
ATAATATAATTAAACGCTTGTCTGAATATATACAAGCTGGCGGAGTCACCTAGTGCAG | 18900 fluorescence intensity (a.u.)
CACTAAACGTGGAATTAACTAGTAATTAGGCATGCAACGACGGAGTCACCTAGTGCAG | 18000 fluorescence intensity (a.u.)
TACTCTATCAATCATCGTCAGTTGAGCCTCAGCTCGCGCACGGAGTCACCTAGTGCAG | 36300 fluorescence intensity (a.u.)
AACAGCCAATCAGAGCATAAATTTCAAACTTTTCTTGAAACGGAGTCACCTAGTGCAG | 14700 fluorescence intensity (a.u.)
AGTTTGATTGATTATGTTGTATCTTGCATGTAATTATAATCGGAGTCACCTAGTGCAG | 49700 fluorescence intensity (a.u.)
AATAGATTATGCAGAATGGGAACACGTGAATACGTGATGCCGGAGTCACCTAGTGCAG | 7420 fluorescence intensity (a.u.)
GCTGATGATTGAAGCACACATTTCTCCATGTTGATGCTTTCGGAGTCACCTAGTGCAG | 35800 fluorescence intensity (a.u.)
TTTCATGATTAATTTCATCCTGCATGAGGCACACGTGCACCGGAGTCACCTAGTGCAG | 23600 fluorescence intensity (a.u.)

Sequence | binding signal
CACGGGATAACTGAGCTAAGTGACATGAACGATTTGGGTGCGGAGTCACCTAGTGCAG | 3140 fluorescence intensity (a.u.)
GTGATGACGAGTTCGTCTTCATCGCTTCCGGTGTCGGCTCCGGAGTCACCTAGTGCAG | 3260 fluorescence intensity (a.u.)
ATATAATTATAGTATAGTAGTAATACTACTACTCCTACCCCGGAGTCACCTAGTGCAG | 20200 fluorescence intensity (a.u.)
CGGGAATTTAAAATTCAAACTGGGAGTTCGTTTGTGATGCCGGAGTCACCTAGTGCAG | 3800 fluorescence intensity (a.u.)
GGCAATTAAGAATTTACCACTCACAATCTATAACACGTGGCGGAGTCACCTAGTGCAG | 5980 fluorescence intensity (a.u.)
CCTGATGACTGATGAGGACTGTGCAGCGATCGATATGTGCCGGAGTCACCTAGTGCAG | 48600 fluorescence intensity (a.u.)
CATATTTTAACCAATAATTTATTTCATGTTATGTTACCAACGGAGTCACCTAGTGCAG | 3780 fluorescence intensity (a.u.)
TTAAAACTAAATTTCAAAATTCAGATTTTGGTTTTGGCTTCGGAGTCACCTAGTGCAG | 7400 fluorescence intensity (a.u.)
GAACCAGCGATGCGAATTTTCCTGCCCTGTTTTCTACTGTCGGAGTCACCTAGTGCAG | 40500 fluorescence intensity (a.u.)
AAATTTGAGGATTTGCCACTGTCAATCATGCGTGAGTCTTCGGAGTCACCTAGTGCAG | 4000 fluorescence intensity (a.u.)
TCATAAATTTCCATGACAATATTTTCTGAACAATATTTTCCGGAGTCACCTAGTGCAG | 5020 fluorescence intensity (a.u.)
GCGTCGGCAAGTGCTCCTGCTCCTCATCAACTGTGCCGCTCGGAGTCACCTAGTGCAG | 3280 fluorescence intensity (a.u.)
TTGATTTGAATACATATTTGAAATTAGACTTAATCACTAACGGAGTCACCTAGTGCAG | 9280 fluorescence intensity (a.u.)
GTAAATTCGAAAATTACATACTAATTACATATGTAAGTGGCGGAGTCACCTAGTGCAG | 18900 fluorescence intensity (a.u.)
ACAATTGACGACAAATTTATCAGAATTCAGAAATTGGGTACGGAGTCACCTAGTGCAG | 25400 fluorescence intensity (a.u.)
TGAAATCATAATTATAAATTGTATATTCAGCTAGATTCTACGGAGTCACCTAGTGCAG | 11000 fluorescence intensity (a.u.)
CTATCTTAAATTGAGAAGGAAGGTAATAATATGTTGGTGCCGGAGTCACCTAGTGCAG | 12400 fluorescence intensity (a.u.)
AGTAATCATATAATAATCCAAGTTATACTGGAATCAAGGGCGGAGTCACCTAGTGCAG | 4170 fluorescence intensity (a.u.)
TCTTGATTACTTGCATAGAGAGCTTGGGATCATCCATTCACGGAGTCACCTAGTGCAG | 28200 fluorescence intensity (a.u.)
ACTAATTATAAATATTAAACGTAGACTATTAATAAAACACCGGAGTCACCTAGTGCAG | 18700 fluorescence intensity (a.u.)
AGTTCCTTCTAATTTATTTTATGTATTCTACAACTACAGCCGGAGTCACCTAGTGCAG | 3950 fluorescence intensity (a.u.)
